Laboratory results reported in PubChem BioAssay AID1508623 (National Center for Advancing Translational Sciences (NCATS), 2021).
Screen size: about 48,000 compounds; about 450 (0.94%) were called active. Roughly 19% stayed inconclusive and do not appear here. Calls follow the shape of the dose curve; as a rule, active = well fitted inhibition curve with a large enough effect; inconclusive = small, poorly fitted or top-dose-only effect; inactive = no such curve, though single readings can be large or run the other way. This is one part of the list.

Assay: Primary qHTS for Identification of Small Molecule Inhibitors of Huntingtin Promoter Activity; also: nearly all actives have a fitted effect of over 50% in size
Settings: HEK293 HTT promoter firefly luciferase reporter (activity 0% = vehicle and -100% = no light), 24 h; series mostly up to 57.5 µM; activity change, negative = inhibition: at the top concentration
How it was run: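 HEK293 Fluc reporter, 2,500 cells/well, 24 h pre-culture; cpds up to 57.5 uM final, 24 h 37 degrees C; Dual-Glo, 10 min RT; normalized vehicle = 0%, zero RLU = -100%.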

Activity change, negative = inhibition, inactive:
CCOc1ccc2ncc3c(-c4ccc(C)cc4)nn(-c4cccc(F)c4)c3c2c1 -10%
CCOc1ccc(OCC)c(NC(=O)c2cc(S(=O)(=O)N3CCc4ccccc43)cn2C)c1 -14.6%
COc1ccc(-c2nc3c(c(SCC(=O)N4CCCCC4)n2)Cc2cc(C)ccc2O3)cc1 4.08%
Cc1ccc(S(=O)(=O)NCC(c2ccco2)N2CCOCC2)cc1 (centres undefined) -13%
CC(=O)Nc1ccc(/C=C/c2noc(-c3ccccc3O)n2)cc1 6.39%
CCOC(=O)CSc1nc(-c2ccc(OCC)cc2)cc(C(F)(F)F)c1C#N -6.09%
CC(=O)c1ccc(N2CCN(S(=O)(=O)c3cc4[nH]c(=O)c(=O)[nH]c4cc3C)CC2)cc1 7.85%
CCc1nnc(NC(=O)c2cc(=O)c3cc(C)ccc3o2)s1 4.42% [at 11.5 µM]
COc1ccccc1CNC(=O)C(=O)NCC(c1cccs1)S(=O)(=O)c1ccccc1 (centres undefined) -34.4%
Cc1ccc(C)c(N2CCN(C(=O)Cn3cnc4onc(-c5ccc(F)cc5)c4c3=O)CC2)c1 -7.73%
Cc1ccc2oc(=O)c3cc(C(=O)NCCCOC(C)C)sc3c2c1 5.05%
COc1ccc(-n2c(SCC(=O)NCc3ccc(Cl)cc3)nc3ccsc3c2=O)cc1 -19.8%
COc1nccnc1NS(=O)(=O)c1ccc(N)cc1 3.91%
Cc1ccc(NC(=O)CCCc2nc(-c3ccco3)no2)cc1Cl 0.971%
COc1ccc(-n2nnnc2C2CCN(S(=O)(=O)c3cccc(C(F)(F)F)c3)CC2)cc1 -11.2%
COc1cccc(NC(=O)C(Cc2ccccc2)N2Cc3ccccc3C2=O)c1 (centres undefined) -9.5%
CC(C)CCOc1ccc(C(=O)NCC2OCCc3ccccc32)cc1 (centres undefined) -2.64%
COc1cccc(-n2c(=O)c3cc(OC)c(OC)cc3n(CC(=O)Nc3ccc(F)cc3)c2=O)c1 -12.1%
COc1cc(NC(=O)c2cccc(Cl)c2Cl)ccc1NC(=O)c1cc2ccccc2o1 -27.9%
CCS(=O)(=O)N1CCCc2cc(C(=O)Nc3cccc(C(C)=O)c3)ccc21 -19.5%
CCCn1c2ccc(F)cc2c2nnc(SCCN3CCCCC3)nc21 -15.9%
CCC(=O)N1CCc2cc(Br)cc(S(=O)(=O)CCC(=O)Nc3cccc(Cl)c3)c21 -15.2%
CCCc1cnc2c(c1SCC(=O)Nc1ccccc1OCC)c(=O)n(C)c(=O)n2C -16.8%
Clc1ccc(-c2nnn3c2nc(NC2CCCCC2)c2ccccc23)cc1 -15.8%
CCOc1ccc(Nc2ncnc3c2c(-c2ccccc2)cn3-c2cccc(C)c2)cc1 -6.03%
CCOc1ccc(C(=O)N(Cc2ccc(C(C)C)cc2)Cc2ccco2)cc1 -21%
Cc1cc2c(cc1NS(=O)(=O)c1ccc(Br)cc1)n(C)c(=O)c(=O)n2C -21.9%
CCCSCCCNC(=O)c1ccc(C)c(NC(=O)c2nsc3ccccc23)c1 -13.6%
Cc1cccc(C)c1NC(=O)CN1CCCC1 0.76%
COc1cccc(Cn2nc(SC)c(S(=O)(=O)c3ccccc3)c2N(C(C)=O)C(C)=O)c1 -28.3%
COc1cc2c(cc1OC)C(c1cccc(Cl)c1)CC(=O)N2 (centres undefined) -22.9%
N#CCC(=O)NN -1.29%
CCc1ccc(OCCSc2nc3ccccc3n2CC(=O)N2CCCCC2)cc1 -37.7%
COc1ccc(Cl)cc1NC(=O)N1CCN(S(=O)(=O)c2ccc3c(ccn3C)c2)CC1 -26.6%
Cc1ccc(OCCSc2nc(-c3ccccc3C)nc3cc(=O)[nH]n23)cc1Cl -4.46%
COc1ccccc1N1CCN(c2ncnc3c2c(-c2ccccc2)cn3-c2cccc(Cl)c2)CC1 -26.1%
Cc1nn(-c2nc(-c3ccccc3)cc(C(F)(F)F)n2)c(C)c1Cl -20.4%
COc1ccc(S(=O)(=O)N2CCC(Oc3ccc(-n4cnnn4)cc3)CC2)cc1 -31.2%
COc1cccc(OC)c1C(=O)NCCc1sc(-c2cccc(F)c2)nc1C -28.4%
CCCCNC(=O)c1cccc(NC(=O)c2nsc3ccccc23)c1 22.4%
CC(N)CCCC(C)(C)O (centres undefined) 1.48%
CCOc1ccc2c(c1)c(=O)c(C(=O)c1ccc3c(c1)OCO3)cn2Cc1ccc(F)cc1 -12.7%
COc1cccc(CNC(=O)c2cnc3c(-c4ccc(F)cc4)c(C)nn3c2C)c1 -5.56%
CCc1ccc(C2C(C(=O)Nc3ccccc3OC)=C(C)Nc3c(C(=O)Nc4ccc(C)cc4)cnn32)cc1 (centres undefined) -11.9%
CCN(C(=O)c1cn(-c2cccc(OC)c2)c(=O)c2ccccc12)c1ccccc1C -13.8%
Cc1ccc(C)c(NC(=O)CSc2nccn2-c2cccc(C)c2C)c1 -25.9%
COc1ccc(C(=O)Nc2ccccc2-c2nc3ccccc3s2)cc1OC -15.7%
COc1ccc(CCCc2nnc(SCC(=O)Nc3cccc(F)c3C)o2)cc1 -15.9%
CCOCCc1nn2c(=O)cc(COC(=O)c3ccccc3OC)nc2s1 -1.9%
COCCCn1c(SCc2cccc(Cl)c2)nc2c(sc3ccccc32)c1=O -6.57%
Cc1cc(=O)n2nc(N(C)CC(=O)NCc3ccccc3C)sc2n1 -11.4%
CCCC(=O)Nc1cccc(OCc2cc(=O)n3cccc(C)c3n2)c1 8.32%
CCc1ccccc1Nc1nn2c(=O)c3ccc(C(=O)NCCC4=CCCCC4)cc3nc2s1 -18.1%
O=C(NCCc1ccccc1)c1cc(Nc2ccccc2)nc2ccccc12 -14.3%
CCOCCc1nnc(NC(=O)C(=O)c2cc(C)n(-c3ccc(C)cc3C)c2C)s1 -33.3%
COc1ccc2c(c1)c1c(c(=O)n(Cc3ccccc3)c(=O)n1CC(=O)Nc1ccccc1OC)n2C -18.6%
CCn1c(C)c(C)c2cc(C(=O)NCC(C)c3ccccc3)ccc21 (centres undefined) -3.03%
COc1ccc(N(CC(=O)Nc2cccc(Cl)c2)S(=O)(=O)c2c(C)[nH]c(=O)[nH]c2=O)cc1 -14.8%
CCOc1ccc(Nc2nc(-c3cccc(Cl)c3)c3c(n2)-c2ccccc2OC3)cc1 -9.39%
O=C(c1ccc2c(Cl)c3c(nc2c1)CCCC3)N1CCN(c2ccc(Cl)cc2)CC1 -2.97%
CCOc1ccc(-n2c(=O)c3c4c(sc3n(CC(=O)NC(C)CC)c2=O)CCCCC4)cc1 (centres undefined) -2.84%
Cc1ccc(CNC(=O)CSc2nc3c(sc4ccccc43)c(=O)n2CCCC(=O)NCCO)cc1 10.4%
O=C(Nc1ccc(F)cc1)Nc1csc2c1CCCC2 -3.61%
C[C@@H](O[C@H]1OCCN(Cc2n[nH]c(=O)[nH]2)[C@H]1c1ccc(F)cc1)c1cc(C(F)(F)F)cc(C(F)(F)F)c1 -26.5%
Oc1cccc(O)c1 9.32%
C[C@@H]1CCC[C@H](C)N1 0.52%
Cc1c(CCNC(=O)c2c(F)cccc2F)sc2nc(-c3ccc(F)cc3)nn12 23.9%
CCOc1ccc(CCn2c3c(c(=O)[nH]c2=O)C(NC(=O)c2cccc(F)c2)(C(F)(F)F)C(=O)N3)cc1OCC (centres undefined) -8.34%
O=C(Cc1ccc(-c2ccccc2)cc1)NCCS(=O)(=O)N1CCN(c2ccc(F)cc2)CC1 -29.8%
Cc1cc(O)cc(C)c1Cl -2.58%
CC(=O)N(c1onc(C)c1C)S(=O)(=O)c1ccc(N)cc1 2.36%
COc1cc(-c2nc3sccn3c2Nc2c(C)cccc2C)ccc1O -2.36%
O=C1Cc2cc(S(=O)(=O)N3CCN(c4cccc(Cl)c4)CC3)ccc2N1 -6.79%
CC(=O)N1CCCc2ccc(NS(=O)(=O)c3cccc(Cl)c3)cc21 -10.7%
CC(=O)N1CCCC1c1nc2ccccc2n1Cc1ccccc1Cl (centres undefined) -9.52%
Cc1cccc(OCc2nc(CC(=O)Nc3ccc(Cl)cc3)cs2)c1 -21.8%
Cc1cc(Nc2ccc(Br)cc2)nc(C)n1 33.2%
Cc1cccc(C)c1-n1ncc(C(=O)NCCCN2CCC(C)CC2)c1C1CCN(C(=O)OC(C)(C)C)CC1 -18.9%
CCOC(=O)c1cnc2c(ccc3ccccc32)c1Nc1ccc(C(C)=O)cc1 -28.6%
COc1cccc(CSc2nc3ccncc3n2CC(=O)Nc2ccc(OC)c(OC)c2OC)c1 -2.51%
CCCCN(CCCC)CC(O)c1cc(Cl)cc2c1-c1ccc(Cl)cc1/C2=C/c1ccc(Cl)cc1 (centres undefined) -6.25%
COc1ccccc1CNC(=O)Cc1csc2nc(-c3ccc(F)cc3)cn12 -17.7%
CCc1cc2c(cc3c(=O)n(CC(=O)NC(C)c4ccccc4)ncn32)s1 (centres undefined) 10.2%
COc1cccc(NC(=O)CCN2C(=O)c3ccccc3Sc3ncccc32)c1 -5.09%
Cc1cc(C)nc(-n2nc(C)c3c2N(Cc2ccccc2F)C(=O)CC3c2ccc(Cl)cc2)n1 (centres undefined) -11.8%
CCc1ccccc1NC(=O)C1CCN(S(=O)(=O)c2cn(C)cn2)CC1 -12.4%
CCOC(=O)c1sc2ccccc2c1S(=O)(=O)NCc1ccccc1OC 0%
Cc1cccc(C(=O)Nc2cc3c(cc2C)n(C)c(=O)n3C)c1 6.51%
CCC(=O)N1CCc2cc(Br)cc(S(=O)(=O)NCCc3cccc(C)c3)c21 -23.3%
O=C(Nc1sc2c(c1C(=O)NCc1ccco1)CCCC2)c1cc(=O)c2cc(Cl)ccc2o1 2.95%
Cc1nnc(N2CCN(C(=O)NCCC(C)C)CC2)c2nn(-c3ccc(Cl)cc3)c(C)c12 -17.2%
Cc1cc(C)c2nc(C)cc(Nc3cccc(C(=O)O)c3)c2c1 -18.6% [at 11.5 µM]
CCOc1cc(C(=O)Nc2cc3c(cc2N2CCCC2)n(C)c(=O)c(=O)n3C)cc(OCC)c1OCC 2.74%
CC(=O)N1CCC(N(Cc2ccc(C)o2)C(=O)Nc2cccc(C(F)(F)F)c2)CC1 -20.8%
Cc1ccc2c(c1)-c1nc(-c3ccc4c(c3)NC(=O)CO4)cc(-c3ccccc3)c1CO2 -6.97%
O=C(CCCCn1c(=O)c2ccccc2n(Cc2cccc(F)c2)c1=O)NCCc1ccccc1 -14.6%
COc1ccccc1NC(=O)Cn1c(C)cc(C)c(C#N)c1=O 2.26%
Cc1ccc(C)c(NC(=O)CN2C(=O)CCc3cc(S(=O)(=O)N4CCCCC4)ccc32)c1 -19.3%
CC(=O)N1CCc2c(sc3c2c(=O)n(-c2ccccc2)c(=O)n3CC(=O)c2ccccc2)C1 -2.77%
